Data reported in US10350218B2, “Isoquinolidinobenzodiazepine (IQB)-1(chloromethyl)-2,3-dihydro-1H-benzo[e]indole (CBI) dimers” (priority 2016, dated 2019).

System: HL-60 cells, EOL1 cells and SK-MEL-5 cells (IL1RAP expressing)
Test: Target dependent cytotoxicity of anti-IL1RAP 3G7-(IQB-CBI) ADCs
Assay type: cell-based, human
Conditions: HL-60, EOL1, SK-MEL-5 cells; varying concentrations, 37° C., five days; compared with non-binding control ADC
Procedure: The selectivity of ADCs comprising Chi3G7 anti-IL1RAP chimeric antibody (human constant domain, mouse variable domain) and various IQB-CBI dimer linker-payloads (D816, D818, D820, D822, D826, D824, D828) is shown in FIGS. 17-23. HL-60 cells, EOL1 cells and SK-MEL-5 cells (human melanoma cell line) were treated with the IL1RAP -selective cytotoxic antibody-drug conjugate, Chi3G7-(IQB-CBI) ADC and the control antibody-drug conjugate, C0-(IQB-CBI) ADC or C0-D212 ADC, at varying concentrations at 37° C. for five days.
Cytotoxicity of Chi3G7-CLT-(IQB-CBI) or Hu3G7-CLT-(IQB-CBI) ADC and a non-binding control ADC were tested in cell lines expressing or not expressing IL1RAP. EOL1 cells express high copy number of IL1RAP, whereas HL60 and SK-MEL-5 cells express low copy number of IL1RAP.

B1: hu3G7-D816 (conjugate)
heavy: EVQLVQSGAEVKKPGASVKISCKASGYTFTNYGMHWVRQAPGQGLEWMGWINTYTGEPTYAQKFQGRFTFTLDTSTSTAYLEIRSLRSDDTAVYYCARYYGNFDYWGQGTLLTVSSASTKGPSVFPLAPSSKSTSGGTAALGCLVKDYFPEPVTVCWNSGALTSGVHTFPAVLQSSGLYSLSSVVTVPSSSLGTQTYICNVNHKPSNTKVDKKV[human IgG1 Fc cut from this listing]
light: EIVMTQSPATLSVSPGERATLSCRASQSISNNLHWYQQKPGQAPRLLIYYASQSISGIPARFSGSGSGTEFTLTISSLQSEDFAVYYCQQSHNWPHTFGQGTKLEIKRTVAAPSVFIFPPSDEQLKSGTASVVCLLNNFYPREAKVQWKVDNALQSGNSQESVTEQDSKDSTYSLSSTLTLSKADYEKHKVYACEVTHQGLSSPVTKSFNRGEC
  target dependent cell killing: target dependent cell killing

B2: hu3G7-D818 (conjugate)
heavy: EVQLVQSGAEVKKPGASVKISCKASGYTFTNYGMHWVRQAPGQGLEWMGWINTYTGEPTYAQKFQGRFTFTLDTSTSTAYLEIRSLRSDDTAVYYCARYYGNFDYWGQGTLLTVSSASTKGPSVFPLAPSSKSTSGGTAALGCLVKDYFPEPVTVCWNSGALTSGVHTFPAVLQSSGLYSLSSVVTVPSSSLGTQTYICNVNHKPSNTKVDKKV[human IgG1 Fc cut from this listing]
light: EIVMTQSPATLSVSPGERATLSCRASQSISNNLHWYQQKPGQAPRLLIYYASQSISGIPARFSGSGSGTEFTLTISSLQSEDFAVYYCQQSHNWPHTFGQGTKLEIKRTVAAPSVFIFPPSDEQLKSGTASVVCLLNNFYPREAKVQWKVDNALQSGNSQESVTEQDSKDSTYSLSSTLTLSKADYEKHKVYACEVTHQGLSSPVTKSFNRGEC
  target dependent cell killing: target dependent cell killing
